Experimental data taken from patent publication US5034409A, “Pyrrole carboxylic acids and esters for blood platelet aggregation inhibition” (Bristol-Myers Squibb Company, priority 1990, dated 1991).

Test system: ADP-induced human platelet aggregation
Type: cell-based
Conditions: human platelet rich plasma, compounds in DMSO, read-out: Inhibition of Human Platelet Aggregation IC50 vs. ADP

IC50 [µg/mL]	Structure (SMILES)
32 (≈ 82.1 µM)	COC(=O)CCCCCCCCn1cc(-c2ccccc2)c(-c2ccccc2)c1 [Example 1, Methyl 3,4-diphenyl-1H-pyrrole-1-nonanoate]
4 (≈ 10.7 µM)	O=C(O)CCCCCCCCn1cc(-c2ccccc2)c(-c2ccccc2)c1 [Example 2, 3,4-Diphenyl-lH-pyrrole-1-nonanoic Acid]

≈ marks a conversion by molar mass, not a printed value.
